The supplement of paper PMC4967469

Experiments:
Assay in all cases: Viability of human cancer cell lines after 72 h of drug (GDSC screen)
[1] = compound: C=CC(=O)Nc1cc(NC(=O)c2ccc(C)c(NC(=O)c3ccno3)c2)cc(C(F)(F)F)c1 [QL-XI-92]; conditions: top dose 10.24 µM; top dose inferred
Experimental: (§1)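 Human cancer cell lines in 384-well plates, medium with 10% serum, drug for 72 h over a 256-fold dose range (nine 2-fold or five 4-fold steps up to the top dose). Adherent lines were fixed and stained with the nucleic acid dye Syto60, suspension lines read with resazurin; signal relative to control wells, capped at 0 and 100%. One two-parameter sigmoid per drug and line, fitted in a mixed model over all curves with the slope shared within a line.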

[2] = compound: CCC1=C[C@@H]2CN(C1)Cc1c([nH]c3ccccc13)[C@@](C(=O)OC)(c1cc3c(cc1OC)N(C)[C@H]1[C@@](O)(C(=O)OC)[C@H](OC(C)=O)[C@]4(CC)C=CCN5CC[C@]31[C@@H]54)C2 [Vinorelbine]; conditions: top dose 0.064 µM; top dose inferred
Experimental: as §1

[3] = compound: CNCc1ccc(-c2[nH]c3cc(F)cc4c3c2CCNC4=O)cc1 [AG-014699]; conditions: top dose 5 µM; top dose inferred
Experimental: as §1

[4] = compound: COc1cc2nccc(Oc3ccc(NC(=O)C4(C(=O)Nc5ccc(F)cc5)CC4)cc3)c2cc1OC [XL-184]; conditions: top dose 5.12 µM; top dose inferred
Experimental: as §1

[5] = compound: COc1cc2ncnc(Nc3cc(Br)c(O)c(Br)c3)c2cc1OC [WHI-P97]; conditions: top dose 10.24 µM; top dose inferred
Experimental: as §1

[6] = compound: COc1cc2ncnc(Nc3ccc(F)c(Cl)c3)c2cc1OCCCN1CCOCC1 [Gefitinib]; conditions: top dose 0.5 µM
Experimental: as §1

[7] = compound: N=C(N)NC(=N)NCCc1ccccc1 [Phenformin]; conditions: top dose 4000 µM; top dose inferred
Experimental: as §1

[8] = compound: N[C@@H](CSC(c1ccccc1)(c1ccccc1)c1ccccc1)C(=O)O [S-Trityl-L-cysteine]; conditions: top dose 5.12 µM; top dose inferred
Experimental: as §1

[9] = compound: O=c1cc(CN2CCOCC2)occ1OCCCCCSc1ccnc2cc(C(F)(F)F)ccc12 [EHT 1864]; conditions: top dose 10 µM; top dose inferred
Experimental: as §1

[10] = compound: O=c1cc(N2CCOCC2)oc2c(-c3cccc4c3sc3ccccc34)cccc12 [NU-7441]; conditions: top dose 2 µM; top dose inferred
Experimental: as §1

Row | Cell Line | AUC [1] | IC50 [1] [µM] | AUC [2] | IC50 [2] [nM] | AUC [3] | IC50 [3] [µM] | AUC [4] | IC50 [4] [µM] | AUC [5] | IC50 [5] [µM] | AUC [6] | IC50 [6] [nM] | AUC [7] | IC50 [7] [mM] | AUC [8] | IC50 [8] [nM] | AUC [9] | IC50 [9] [µM] | AUC [10] | IC50 [10] [nM]
1 | NCI-H1092 (small cell lung carcinoma, suspension) | 0.939 | > 10.2 | 0.862 | 55.8 | 0.987 | > 5 | 0.972 | > 5.12 | 0.984 | > 10.2 | 0.987 | > 500 | 0.957 | > 4 | 0.933 | > 5120 | 0.989 | > 10 | 0.99 | > 2000
2 | NCI-H1155 (large cell lung carcinoma, suspension) | 0.94 | > 10.2 | 0.977 | > 64 | 0.963 | > 5 | 0.928 | > 5.12 | 0.978 | > 10.2 | 0.982 | > 500 | 0.712 | 0.871 | 0.818 | 2260 | 0.915 | > 10 | 0.945 | > 2000
3 | NCI-H1304 (small cell lung carcinoma, suspension) | 0.942 | > 10.2 | 0.765 | 25.2 | 0.987 | > 5 | 0.987 | > 5.12 | 0.987 | > 10.2 | 0.973 | > 500 | 0.63 | 0.59 | 0.865 | > 5120 | 0.979 | > 10 | 0.962 | > 2000
4 | NCI-H1395 (lung adenocarcinoma, adherent) | 0.956 | > 10.2 | 0.862 | > 64 | 0.853 | > 5 | 0.968 | > 5.12 | 0.98 | > 10.2 | 0.98 | > 500 | 0.943 | > 4 | 0.872 | > 5120 | 0.758 | 4.55 | 0.952 | > 2000
5 | NCI-H1417 (small cell lung carcinoma, suspension) | 0.916 | > 10.2 | 0.764 | 27.5 | 0.922 | > 5 | 0.965 | > 5.12 | 0.972 | > 10.2 | 0.978 | > 500 | 0.124 | < 0.0156 | 0.858 | > 5120 | 0.869 | > 10 | 0.969 | > 2000
6 | NCI-H1436 (small cell lung carcinoma, suspension) | 0.935 | > 10.2 | 0.745 | 22.7 | 0.984 | > 5 | 0.896 | > 5.12 | 0.985 | > 10.2 | 0.985 | > 500 | 0.782 | 1.93 | 0.711 | 1390 | 0.97 | > 10 | 0.985 | > 2000
7 | NCI-H1648 (lung adenocarcinoma, adherent) | 0.93 | > 10.2 | 0.524 | 4.68 | 0.945 | > 5 | 0.919 | > 5.12 | 0.84 | 7.68 | 0.893 | > 500 | 0.675 | 0.796 | 0.632 | 757 | 0.943 | > 10 | 0.974 | > 2000
8 | NCI-H1869 (lung squamous cell carcinoma, adherent) | 0.981 | > 10.2 | 0.895 | > 64 | 0.985 | > 5 | 0.975 | > 5.12 | 0.862 | > 10.2 | 0.93 | > 500 | 0.758 | 1.56 | 0.873 | > 5120 | 0.966 | > 10 | 0.936 | > 2000
9 | NCI-H1876 (small cell lung carcinoma, adherent) | 0.955 | > 10.2 | 0.854 | 51.5 | 0.918 | > 5 | 0.922 | > 5.12 | 0.987 | > 10.2 | 0.978 | > 500 | 0.841 | 2.82 | 0.744 | 1610 | 0.935 | > 10 | 0.837 | 1360
10 | NCI-H2081 (small cell lung carcinoma, suspension) | 0.945 | > 10.2 | 0.824 | 41.1 | 0.985 | > 5 | 0.989 | > 5.12 | 0.989 | > 10.2 | 0.97 | > 500 | 0.838 | 2.93 | 0.974 | > 5120 | 0.958 | > 10 | 0.983 | > 2000
11 | NCI-H2141 (small cell lung carcinoma, suspension) | 0.988 | > 10.2 | 0.806 | 31.5 | 0.99 | > 5 | 0.952 | > 5.12 | 0.99 | > 10.2 | 0.991 | > 500 | 0.788 | 1.7 | 0.856 | 3960 | 0.978 | > 10 | 0.99 | > 2000
12 | NCI-SNU-16 (stomach, suspension) | 0.991 | > 10.2 | 0.883 | 54.5 | 0.989 | > 5 | 0.991 | > 5.12 | 0.99 | > 10.2 | 0.981 | > 500 | 0.875 | 3.16 | 0.711 | 1160 | 0.926 | > 10 | 0.987 | > 2000
13 | NEC8 (testis, adherent) | 0.984 | > 10.2 | 0.706 | 13.7 | 0.98 | > 5 | 0.909 | > 5.12 | 0.965 | > 10.2 | 0.983 | > 500 | 0.988 | > 4 | 0.811 | 2230 | 0.984 | > 10 | 0.883 | 1580
14 | NH-12 (neuroblastoma, adherent) | 0.972 | > 10.2 | 0.802 | 36.2 | 0.955 | > 5 | 0.881 | > 5.12 | 0.965 | > 10.2 | 0.92 | > 500 | 0.984 | > 4 | 0.981 | > 5120 | 0.97 | > 10 | 0.978 | > 2000
15 | NKM-1 (acute myeloid leukaemia, suspension) | 0.796 | 4.94 | 0.484 | 3.62 | 0.894 | > 5 | 0.17 | 0.0307 | 0.978 | > 10.2 | 0.95 | > 500 | 0.496 | 0.243 | 0.87 | 5000 | 0.942 | > 10 | 0.924 | > 2000
16 | NMC-G1 (glioma, adherent) | 0.919 | > 10.2 | 0.701 | 17 | 0.909 | > 5 | 0.863 | > 5.12 | 0.977 | > 10.2 | 0.975 | > 500 | 0.817 | 2.9 | 0.805 | 3310 | 0.978 | > 10 | 0.965 | > 2000
17 | NOS-1 (osteosarcoma, adherent) | 0.827 | 8.31 | 0.787 | 35.1 | 0.96 | > 5 | 0.547 | 0.442 | 0.952 | > 10.2 | 0.96 | > 500 | 0.697 | 1.03 | 0.7 | 1340 | 0.899 | > 10 | 0.916 | > 2000
18 | OCI-AML5 (acute myeloid leukaemia, suspension) | 0.72 | 2.52 | 0.644 | 9.61 | 0.989 | > 5 | 0.549 | 0.431 | 0.945 | > 10.2 | 0.988 | > 500 | 0.654 | 0.641 | 0.677 | 948 | 0.979 | > 10 | 0.981 | > 2000
19 | OCI-LY-19 (B-cell lymphoma, suspension) | 0.825 | 5.52 | 0.39 | 2.04 | 0.944 | > 5 | 0.865 | 3.96 | 0.813 | 4.99 | 0.986 | > 500 | 0.391 | 0.129 | 0.58 | 521 | 0.969 | > 10 | 0.986 | > 2000
20 | OMC-1 (cervix, adherent) | 0.983 | > 10.2 | 0.967 | > 64 | 0.988 | > 5 | 0.94 | > 5.12 | 0.969 | > 10.2 | 0.955 | > 500 | 0.521 | 0.285 | 0.961 | > 5120 | 0.97 | > 10 | 0.976 | > 2000
21 | P31-FUJ (acute myeloid leukaemia, suspension) | 0.995 | > 10.2 | 0.995 | > 64 | 0.989 | > 5 | 0.994 | > 5.12 | 0.993 | > 10.2 | 0.992 | > 500 | 0.854 | 2.05 | 0.996 | > 5120 | 0.971 | > 10 | 0.995 | > 2000
22 | P32-ISH (Burkitt lymphoma, suspension) | 0.817 | 4.02 | 0.464 | 3.26 | 0.995 | > 5 | 0.88 | 3.12 | 0.987 | > 10.2 | 0.989 | > 500 | 0.958 | > 4 | 0.744 | 1280 | 0.988 | > 10 | 0.995 | > 2000
23 | PF-382 (T-cell lymphoblastic leukaemia, suspension) | 0.878 | 8.16 | 0.66 | 10.4 | 0.986 | > 5 | 0.886 | 4.4 | 0.981 | > 10.2 | 0.977 | > 500 | 0.538 | 0.314 | 0.643 | 752 | 0.945 | > 10 | 0.991 | > 2000
24 | QIMR-WIL (acute myeloid leukaemia, suspension) | 0.789 | 4.37 | 0.472 | 3.36 | 0.984 | > 5 | 0.914 | > 5.12 | 0.915 | > 10.2 | 0.987 | > 500 | 0.669 | 0.728 | 0.65 | 824 | 0.958 | > 10 | 0.976 | > 2000
25 | REH (B-cell leukaemia, suspension) | 0.784 | 4.15 | 0.586 | 6.83 | 0.964 | > 5 | 0.86 | 4.03 | 0.964 | > 10.2 | 0.959 | > 500 | 0.379 | 0.118 | 0.959 | > 5120 | 0.987 | > 10 | 0.982 | > 2000

The IC50 comes from the fitted curve, where viability falls to half of the control; a fit beyond the top or the lowest dose is shown as a bound at that dose. AUC sums up the same curve from the lowest dose to the 256-fold higher top dose; it is 1 without any effect and falls as sensitivity rises. For some assays here: The top dose, if marked as inferred, was calculated from the reported fits.
